In all, about 110,000 compounds were measured (“z-score”: median about -0.1, highest 2% from about 2 on). The list shows a part of the results. The source made the active and inactive calls.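 Rule for the calls: active = z-score in the third read window above 3 or below -3; inactive = the rest.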
What follows are compounds tested against Metabotropic glutamate receptor 8 (Rattus norvegicus) (UniProt P70579) (assay: mGluR8 Gi/Go-coupled signaling modulation – cell-based, rat, thallium flux, HTS, primary screen (AID 488969)). Conditions: HEK293 rat mGluR8, GIRK (G protein-gated inwardly rectifying potassium channel) thallium flux, FluoZin2; at 10 µM; stronger effect = higher value; submaximal glutamate (EC20) added with thallium.
Sequence of UniProt P70579 (P70579 whole entry, looked up): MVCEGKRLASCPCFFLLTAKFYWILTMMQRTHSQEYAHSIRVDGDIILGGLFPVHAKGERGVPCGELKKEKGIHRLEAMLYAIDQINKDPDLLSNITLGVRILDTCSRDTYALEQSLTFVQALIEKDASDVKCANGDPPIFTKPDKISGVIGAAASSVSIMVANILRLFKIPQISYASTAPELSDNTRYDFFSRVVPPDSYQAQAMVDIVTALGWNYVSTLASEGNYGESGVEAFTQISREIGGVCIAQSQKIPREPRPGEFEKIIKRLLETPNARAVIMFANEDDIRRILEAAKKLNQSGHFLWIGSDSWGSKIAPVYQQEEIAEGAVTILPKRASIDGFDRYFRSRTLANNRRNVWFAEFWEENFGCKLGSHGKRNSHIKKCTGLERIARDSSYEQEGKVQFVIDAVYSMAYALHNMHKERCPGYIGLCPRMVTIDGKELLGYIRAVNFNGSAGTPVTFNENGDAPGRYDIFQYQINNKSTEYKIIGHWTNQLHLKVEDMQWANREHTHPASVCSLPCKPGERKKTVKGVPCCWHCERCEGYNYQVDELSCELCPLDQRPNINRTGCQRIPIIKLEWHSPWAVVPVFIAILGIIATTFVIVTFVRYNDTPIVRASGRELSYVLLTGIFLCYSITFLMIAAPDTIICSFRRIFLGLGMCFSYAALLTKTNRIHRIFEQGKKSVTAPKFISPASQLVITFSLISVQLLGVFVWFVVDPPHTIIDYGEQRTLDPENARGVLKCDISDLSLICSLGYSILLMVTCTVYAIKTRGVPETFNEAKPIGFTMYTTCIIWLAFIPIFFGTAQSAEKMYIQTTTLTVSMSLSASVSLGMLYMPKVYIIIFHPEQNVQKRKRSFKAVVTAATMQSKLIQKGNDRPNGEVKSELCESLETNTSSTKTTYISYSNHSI

Row | SMILES | z-score
1 | COc1cc2c(cc1OC)C(c1cccc([N+](=O)[O-])c1)N(C(=O)c1ccc(F)cc1)CC2 (stereo unspecified) | -1.34
2 | CC(C)(C)NC(=O)C(c1ccco1)N(Cc1ccc(F)cc1)C(=O)c1snc(C(N)=O)c1N (stereo unspecified) | -0.414
3 | Cc1nc(NCCc2ccc(F)cc2)c(C#N)c(C)c1[N+](=O)[O-] | -0.205
4 | O=C(Cc1cccc2ccccc12)N/N=C1\CCCc2ccccc21 | 0.00286
5 | COC(=O)c1ccc(NC(=O)c2ccccc2NS(=O)(=O)c2ccccc2)cc1 | -0.484
6 | CC(=O)N1CCc2cc(S(=O)(=O)CCC(=O)N3CCN(C(=O)c4ccco4)CC3)ccc21 | 0.0829
7 | CCN=C1S/C(=C\c2ccc(N3CCOCC3)cc2C)C(=O)N1CC | 0.908
8 | CCC(C)NC(=O)C1c2cc(OC)c(OC)cc2C(=O)N(C)C1c1ccc(OC)cc1 (stereo unspecified) | 0.0855
9 | O=c1c2ccccc2cnn1-c1ccc(Cl)cc1 | -0.0417
10 | CCOC(=O)C1=C(C)Nc2ccccc2N=C1NC(=O)Cc1ccc(OC)cc1 | -0.00752
11 | Cc1cc(C)nc(NC(=O)c2ccc(C)c([N+](=O)[O-])c2)n1 | -0.0674
12 | CSc1nc(N)nc(SCCS(=O)(=O)c2ccc(Cl)cc2)c1C#N | -0.35
13 | Cc1cc(C(=O)CSc2nnc(-c3ccc(F)cc3)o2)c(C)n1CC1COc2ccccc2O1 (stereo unspecified) | -0.115
14 | O=C(CCc1ccccc1)NNC(=O)C1CCCCC1 | 0.0776
15 | COc1ccc(NC(=O)CN2CCC(C)CC2)c([N+](=O)[O-])c1 | -0.201
16 | CCOC(=O)C1CCCN(C(=O)CN2C(=O)COc3ccc(C(C)(C)C)cc32)C1 (stereo unspecified) | -1.06
17 | CCN(c1ccccc1)S(=O)(=O)c1ccc(C(=O)OC(C)C(=O)NCCC2=CCCCC2)cc1 (stereo unspecified) | -0.089
18 | O=C(Cn1cnc2ccccc21)N/N=C/c1ccccc1[N+](=O)[O-] | -0.096
19 | CC(=O)Nc1nnc(SCC(=O)NCCOc2ccccc2)s1 | 1.03
20 | O=C(O)CC1S/C(=N/N=C/c2ccc(-c3ccc(Cl)cc3[N+](=O)[O-])o2)NC1=O (stereo unspecified) | 0.0587
21 | CCOC(=O)c1ccc(NC(=O)Cn2ncc(Cl)c(Cl)c2=O)cc1 | -0.205
22 | O=C(COc1ccc(Cl)cc1)Nc1ncccn1 | 0.0854

Row | SMILES | z-score
23 | Cc1nn(C)cc1/C=N/NC(=O)C(C)(C)Oc1ccc(Cl)cc1 | -0.174
24 | O=C(CSc1nnc(-c2ccccc2)c(-c2ccccc2)n1)Nc1ccc(Br)cn1 | -0.0996
25 | CSc1cccc(NC(=O)c2ccco2)c1 | -0.693
26 | Cc1ccc(-n2cc(C(=O)c3cc(Cl)ccc3O)cc(C#N)c2=O)cc1 | -0.415
27 | Cc1ccc(C(=O)N/C(=C/c2cccs2)C(=O)NCCc2c[nH]c3ccccc23)cc1 | -0.137
28 | CCC(=O)N1c2ccc(S(=O)(=O)CCC(=O)N3CCN(c4ccccc4)CC3)cc2CC1C (stereo unspecified) | -0.0112
29 | CCOC(=O)c1ccccc1NC(=O)CN(c1ccccc1OC)S(C)(=O)=O | -0.158
30 | O=C1c2ccccc2C(Nc2ccccc2)N1c1ccc(Cl)cn1 (stereo unspecified) | -1.69
31 | COc1ccc(Oc2ncc(CN3CCN(c4ccccc4)CC3)s2)cc1 | 0.957
32 | CC1(C)Cc2nc3sc4c(=O)n(CC(=O)NCc5ccccc5)cnc4c3cc2CO1 | -0.0873
33 | Cc1cccc(C)c1NC(=O)C(NC(=O)c1ccccn1)c1ccc([N+](=O)[O-])cc1 (stereo unspecified) | 2.97
34 | Cc1cc2ncn(-c3ncnc4sc5c(c34)CCCC5)c2cc1C | 0.23
35 | Cc1cc(N/C=C2\CCCCC2=O)no1 | -1.13
36 | CC(=O)Nc1ccc(C(=O)OCc2ccc(Br)cc2)cc1 | 0.529
37 | Cc1cc(NC(=O)COC(=O)c2n[nH]c3ccccc23)no1 | 0.11
38 | S=c1[nH]nc(-c2ccco2)n1/N=C/c1cccs1 | -0.0217
39 | CNc1ccc(Br)cc(C(=O)/C=C/c2cccc(OC)c2OC)c1=O | -0.222
40 | Cn1c(SCC(=O)NC(c2ccccc2)c2ccccc2)nnc1-c1cccs1 | 0.417
41 | CC(C)(C)n1nnnc1C(c1cccc(C#N)c1)N1CCCCCC1 (stereo unspecified) | -0.393
42 | CCN(CC)c1ccc(/C=N/NC(=S)NCc2ccco2)cc1 | 0.137
43 | Cc1ccc(NC(=O)c2nc[nH]c2C(=O)Nc2ccc(C)cc2)cc1 | -0.0719
44 | O=C(Nc1ccccc1)N1CCn2c1nc1ccccc12 | -0.491

Row | SMILES | z-score
45 | CC(=O)Nc1ccccc1N(CC(O)Cn1c2ccccc2c2ccccc21)S(=O)(=O)c1ccc(C)cc1 (stereo unspecified) | 0.249
46 | CCN(CC)N=Nc1[nH]nc2nc(C)cc(C)c12 | 0.248
47 | Cc1ccc2oc(=O)c3cnn(CC(=O)N(Cc4ccco4)C4CCCCC4)c3c2c1 | -0.707
48 | COC(=O)CNC(c1ccccc1)c1cc(Br)ccc1NS(=O)(=O)c1ccccc1 (stereo unspecified) | -0.0772
49 | CCCC(C)c1nnc(NC(=O)c2cc(C(=O)OC)cc([N+](=O)[O-])c2)s1 (stereo unspecified) | -0.231
50 | Cc1ccc(-c2csc(NC(=S)NC(=O)/C=C/c3ccco3)n2)cc1 | 0.239
51 | Cc1cc(NC(=O)COn2nnc3ccccc32)no1 | 0.234
52 | COC(=O)c1ccc(C(=O)OC)c(NC(=O)CS(=O)(=O)Cc2ccccc2)c1 | -0.0763
53 | Cc1cc(N)n2ncc(-c3ccccc3)c2n1 | -0.0202
54 | Nc1nnc(SCC(=O)Nc2ccccc2N2CCOCC2)s1 | -0.16
55 | O=C(COc1ccc2ccccc2c1)N1CCCC1 | 0.16
56 | CCOc1ccccc1N1CCN(C(=O)c2ccccc2)CC1 | -1.51
57 | O=C(C1CCCO1)N1CCN(C(=S)Nc2ccc(F)cc2)CC1 (stereo unspecified) | 0.0278
58 | O=C(NNC(=O)C1CC2CCC1C2)c1ccccc1 (stereo unspecified) | -0.631
59 | COc1cccc(C(=O)Nc2ncc3c(n2)CC(C)CC3=O)c1 (stereo unspecified) | -0.14
60 | CCC(C)(C)NC(=O)CN(C(=O)CNS(=O)(=O)c1ccc(C)cc1)c1ccc2c(c1)OCCO2 | -0.235
61 | CCc1cccc(NC(=O)NC2CCCCC2)c1 | active: 4.38
62 | O=C(NCC1CCCO1)c1ccc2c(=O)n(Cc3ccco3)c(SCC(=O)N3CCCC3)nc2c1 (stereo unspecified) | -0.423
63 | COc1ccc(/C(O)=C/Sc2nnc(Cc3ccccc3)o2)cc1 | 0.181
64 | CCc1nnc(NS(=O)(=O)c2ccc(N=Cc3c(C)[nH]n(-c4ccc(C)c(C)c4)c3=O)cc2)s1 | -0.299
65 | O=C(Nc1ccc2snnc2c1)N1CCN(c2ccccc2)CC1 | -0.66
66 | Cc1cccc(OCC(=O)OCC(=O)c2c(N)n(C)c(=O)n(C)c2=O)c1C | -0.0585

Row | SMILES | z-score
67 | CCCCN=C1C([N+](=O)[O-])=CC=C2C1=NC1(CCCCC1)N2O | -0.972
68 | Cc1ccc(NC(=O)C(C)Sc2nnc(-c3cccnc3)n2-c2ccccc2)cc1 (stereo unspecified) | 0.084
69 | Cc1cccc(N2CCN(C(=O)c3ccccc3NC(=O)C3CCCCC3C(=O)O)CC2)c1 (stereo unspecified) | 0.304
70 | CCC(=O)Nc1ccccc1C(=O)N1CCN(Cc2ccccc2)CC1 | 0.946
71 | CC(=O)c1ccc(-n2c(-c3cc(-c4ccco4)[nH]n3)n[nH]c2=S)cc1 | -0.412
72 | CC1CCCCN1CCNC(=O)CN1C(=O)COc2ccccc21 (stereo unspecified) | -0.467
73 | CCn1cc(C(=O)NCCCN2CC(C)CC(C)C2)c(=O)c2cc(S(=O)(=O)N(C)C)ccc21 (stereo unspecified) | -0.0824
74 | COc1cc(C=Nc2c(C)cc(C)cc2C)ccc1OC(C)=O | 0.595
75 | CCN(CC)S(=O)(=O)c1ccc2c(c1)nc(SCC(=O)N1CCOCC1)n2-c1ccccc1OC | -0.239
76 | Cc1cc(C)n(CC(=O)n2nc(C)cc2C)n1 | -0.108
77 | Cc1ccc(C)n1CCN1CCN(CC(=O)Nc2cc(C(F)(F)F)ccc2Cl)CC1 | -0.38
78 | CCc1cc2c(cc3c(=O)n(CC(=O)N4CCN(c5ccccn5)CC4)nc(CC)n32)s1 | -0.884
79 | COc1ccc(NC(=O)Cn2nnc(-c3ccccc3N)n2)cc1OC | 0.509
80 | CC(C)C(=O)Nc1ccccc1C(=O)N/N=C/c1ccc([N+](=O)[O-])cc1 | -0.163
81 | S=c1[nH]nc(COc2ccc3c(c2)OCO3)n1-c1ccccc1 | 0.774
82 | Cc1nnc(-c2cnn(-c3ccccc3)c2N)n1Cc1cccc(C(F)(F)F)c1 | -0.0926
83 | COc1nc(Oc2ccc(=O)n(C)n2)nc(N(C)C)n1 | -0.215
84 | CCCCNC(=O)CCSc1ccc(C)cc1 | -0.0336
85 | Cc1onc(-c2ccccc2)c1C(=O)Nc1nc2c(s1)CCCC2 | 0.165
86 | Cc1ccc(S(=O)(=O)Nc2nc(C)cc(NCCN)n2)cc1 | 0.381
87 | COC(=O)c1ccc(C)c(NC(=O)CCNC(=O)c2ccc([N+](=O)[O-])cc2)c1 | -0.381
88 | NS(=O)(=O)c1ccc(NC(=O)C2CCCN(S(=O)(=O)c3ccc(F)cc3)C2)cc1 (stereo unspecified) | 0.0325

Row | SMILES | z-score
89 | CSc1ccccc1N1CCN(C(=O)Nc2ccc3c(c2)NC(=O)CO3)CC1 | -0.216
90 | CC(C)(CSc1nncn1N)NS(=O)(=O)c1ccc(Cl)cc1 | 0.241
91 | Cc1nnc(NC(=O)CSc2nc3c(c(=O)n2C)SC(C)C3)s1 (stereo unspecified) | 0.192
92 | CCN(CC)C(=O)CSc1nnc(-c2ccc(S(=O)(=O)N3CCCC3)cc2)o1 | -0.113
93 | CCOC(=O)C1=NN(c2ccccc2)C2=NC(C)=C(C(=O)OC)C(c3cccs3)N12 (stereo unspecified) | -0.379
94 | COc1ccc(C(=O)COC(=O)CNC(=O)C2CCCCC2)c(OC)c1 | -0.0967
95 | Cc1nn(-c2cccc(C(F)(F)F)c2)c(Cl)c1/C=N/Nc1cccc(C(=O)O)c1 | -0.615
96 | O=C(CSc1nccn1-c1ncc(C(F)(F)F)cc1Cl)c1ccc(Cl)cc1 | -0.0872
97 | O=C(NC(=S)N1CCc2ccccc21)c1ccccc1Br | active: 11.2
98 | CC(=O)NC(=S)Nc1ccc(NC(=O)c2cccs2)cc1 | -0.0605
99 | CCOC(=O)C(O)(C1C(=O)CC(C)(C)CC1=O)C(F)(F)F (stereo unspecified) | -0.123
100 | CC1CC(C)(C)NC(C)c2ccccc21 (stereo unspecified) | -0.506
101 | Cc1ccc(S(=O)(=O)N2CCOCC2)cc1C(=O)OCC(=O)Nc1ccc2c(c1)OCO2 | -0.412
102 | COC(=O)C1=C(CSc2nncn2C)NC(=O)NC1c1ccc(F)cc1 (stereo unspecified) | 0.135
103 | CCOc1cc(C2NN=C(c3ccccc3)S2)ccc1OCc1ccccc1Cl (stereo unspecified) | 0.78
104 | CCOC(=O)N1CCC(c2cc(=O)n3[nH]c(C)c(-c4ccc(F)cc4)c3n2)CC1 | -1.32
105 | CC(C)CC(=O)N/C(N)=N/c1nc2ccccc2s1 | -0.563
106 | CC1c2[nH]c3ccccc3c2CCN1S(C)(=O)=O (stereo unspecified) | 0.542

Reference: PubChem BioAssay AID488969 (Vanderbilt High Throughput Screening Facility, 2010)
